Results taken from paper PMC4336329 (PLoS ONE, 2015).
Screen size: about 310,000 compounds; about 14,000 (4.5%) showed an effect of 50% or more. Effects have a minus sign here. The list shows a part of the results.

biological target: human ether-à-go-go-related gene (hERG) potassium channel (human, UniProt Q12809); test: primary screen, population patch clamp on CHO cells stably expressing hERG
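Also: peak tail current of the secondary pulse compared with the same well before compound.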

human ether-à-go-go-related gene (hERG) potassium channel, sequence (Q12809 whole entry, looked up): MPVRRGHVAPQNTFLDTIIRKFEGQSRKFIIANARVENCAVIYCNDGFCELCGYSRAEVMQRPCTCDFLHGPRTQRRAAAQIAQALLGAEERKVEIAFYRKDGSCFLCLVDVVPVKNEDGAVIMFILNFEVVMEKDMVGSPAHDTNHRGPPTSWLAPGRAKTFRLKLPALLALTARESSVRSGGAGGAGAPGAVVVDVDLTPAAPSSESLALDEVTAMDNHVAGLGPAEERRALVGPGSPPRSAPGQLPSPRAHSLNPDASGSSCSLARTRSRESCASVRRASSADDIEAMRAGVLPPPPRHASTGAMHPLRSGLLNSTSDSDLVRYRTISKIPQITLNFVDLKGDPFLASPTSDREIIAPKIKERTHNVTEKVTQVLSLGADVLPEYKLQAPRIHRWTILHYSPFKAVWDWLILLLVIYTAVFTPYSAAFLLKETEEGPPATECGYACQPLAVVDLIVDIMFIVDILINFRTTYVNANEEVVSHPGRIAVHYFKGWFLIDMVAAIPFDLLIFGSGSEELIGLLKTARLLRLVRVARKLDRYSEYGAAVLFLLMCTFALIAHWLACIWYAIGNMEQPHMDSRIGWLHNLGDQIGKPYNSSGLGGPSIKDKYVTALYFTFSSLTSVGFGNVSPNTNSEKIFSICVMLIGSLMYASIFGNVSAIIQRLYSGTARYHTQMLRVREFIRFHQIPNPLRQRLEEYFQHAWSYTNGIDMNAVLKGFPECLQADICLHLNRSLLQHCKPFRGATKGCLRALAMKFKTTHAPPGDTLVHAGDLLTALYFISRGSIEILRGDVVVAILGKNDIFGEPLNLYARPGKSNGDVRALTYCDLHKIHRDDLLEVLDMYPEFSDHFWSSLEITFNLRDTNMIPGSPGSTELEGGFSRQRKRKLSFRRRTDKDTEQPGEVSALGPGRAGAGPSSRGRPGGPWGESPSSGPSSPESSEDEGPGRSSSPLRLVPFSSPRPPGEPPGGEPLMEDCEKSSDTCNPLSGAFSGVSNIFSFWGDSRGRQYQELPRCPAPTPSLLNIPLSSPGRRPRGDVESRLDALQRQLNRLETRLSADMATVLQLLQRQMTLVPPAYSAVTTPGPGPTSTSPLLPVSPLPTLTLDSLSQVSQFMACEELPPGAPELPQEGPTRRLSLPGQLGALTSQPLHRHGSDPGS

Structure (SMILES)	hERG current change (%, negative = inhibition) at 10uM [%]
CCN(CC(=O)Nc1ccc(NC(C)=O)cc1)C(=O)c1ccc2c(c1)OCCO2	0.98
CCN(CC)C(=O)CCn1nc(-c2ccc(C)cc2)c2ccccc2c1=O	-28.4
COC(=O)C1=C(C)NC(C)=C(C(=O)OC)C1C(=O)OC(C)C(=O)c1ccccc1 (centres unmarked)	-16.6
Cc1cc(S(=O)(=O)NCc2ccccn2)c(Cl)cc1Cl	7.26
NC(=O)C1CC(=O)N(c2ccc(OCc3ccc(Cl)cc3)cc2)C1 (centres unmarked)	-0.277
N/C(=N\OC(=O)c1cccs1)c1cccc([N+](=O)[O-])c1	17.2
CCOc1ccc(OCC(=O)OC(C)C(=O)Nc2ccc(Cl)cn2)cc1 (centres unmarked)	-42
Cc1cc(-n2c(C)cc(C(=O)CSc3nnc4sc5ccccc5n34)c2C)no1	-7.19
CCSc1nnc(NC(=O)Cc2ccccc2OC)s1	13
CC(=O)Nc1ccc(S(=O)(=O)NCc2ccc(C(=O)NCCCN3CCC(C)CC3)cc2)cc1	19.7
CC(NCc1ccc(F)cc1)C(=O)NC1CCCCC1.O=C(O)C(=O)O (centres unmarked)	9.88
Cc1ccc(NS(=O)(=O)c2ccc(C(=O)NCC(c3ccco3)N3CCCCC3)cc2)cc1 (centres unmarked)	-7.6
O=C(CCc1ccccc1)Nc1cc(NC(=O)CCc2ccccc2)cc(C(=O)O)c1	-22
O=C(Cc1cccs1)Nc1cccc(C(=O)Nc2ccc(C(=O)O)cc2)c1	6.12
CC(C)OC(=O)c1cccnc1N1CCN(c2ccc(F)cc2)CC1	8.68
Cc1cc(NC(=S)N(Cc2ccc(Br)cc2)Cc2ccc(C(=O)O)cc2)ccc1Cl	34.6
CN1CCN(NC(=O)Nc2cccc(Cl)c2Cl)CC1	14.1
O=C(Nc1ccc(O)c2c(=O)cc(-c3cccc(Cl)c3)oc12)c1ccccc1Cl	-15.6
CC(Cc1cccs1)NC(=O)c1cccc(Cl)c1 (centres unmarked)	-20.9

Structure (SMILES)	hERG current change (%, negative = inhibition) at 10uM [%]
COc1ccccc1CNC(=O)c1ccc2c(=O)n(CCCN3CCCC3=O)c(=S)[nH]c2c1	0.0134
O=C(Nc1ccccc1N1CCOCC1)c1ccc(S(=O)(=O)NCc2ccco2)cc1	-15.7
CC(C)n1nc(C(=O)NNC(=O)c2ccc(OC(F)F)cc2)c2ccccc2c1=O	-76.3
CCCN(CC1CC1)C(=O)COc1ccccc1C(=O)NCc1ccccc1	-56
COc1cccc2c(=O)n(CC(=O)Nc3ccccc3F)ccc12	3.76
CCN(CC)CCCN=C(N)N.O=S(=O)(O)O	9.04
N#Cc1nc(-c2cccs2)oc1NCc1ccc2c(c1)OCO2	-10
CC1CN(C(=S)Nc2cccc(Cl)c2Cl)CC(C)O1 (centres unmarked)	-0.96
CCCNC(=O)c1ccc2snnc2c1	-3.1
CCOC(=O)/C(C(=O)Nc1ccccc1Br)=C1/NC(C)(C)Cc2ccccc21	-3.65
O=C(NCCCn1ccnc1)C(=O)NCC1OCCCN1S(=O)(=O)c1ccccc1 (centres unmarked)	19.9
O=c1c2cnn(-c3ccccc3)c2ncn1CCc1ccccc1	11.8
Cl.Fc1ccc(-c2ccc(CNCc3ccccn3)o2)cc1Cl	-34.9
CC(C)(C)n1ncc(Oc2ccccc2[N+](=O)[O-])c(Cl)c1=O	-9.62
COCCNC(=O)C(c1c[nH]c2ccccc12)N(C(=O)c1snc(C(N)=O)c1N)c1cccc(OC)c1 (centres unmarked)	13.9
Cc1cc(C)n2c(SCC(C)C)nnc2n1	13.3
CC(=O)N1CCN=C1SCc1cccc(C(F)(F)F)c1	-22.9
COc1ccc(-c2nc(C#N)c(NCc3ccccc3Cl)o2)cc1	3.52
CCN(CC(=O)Nc1c(F)cccc1F)C(=O)CNC(=O)C1CCCCC1	-0.699

Structure (SMILES)	hERG current change (%, negative = inhibition) at 10uM [%]
CSc1ccc(CCNC(=O)CCc2nnc3ccc(N4CCCC4)nn23)cc1	-3.45
Cc1csc2ncc(C(=O)NCCC(c3ccccc3)c3ccccc3)c(=O)n12	-0.968
CCN(CCn1cccn1)C(=O)CCc1nnc(-c2ccccc2)o1	12
COc1cccc(COCC(O)CN2CCC(C(N)=O)CC2)c1 (centres unmarked)	12.3
Cc1ccc2nc(NC(=O)C3CCCN(S(=O)(=O)c4cnc[nH]4)C3)sc2c1 (centres unmarked)	-10.1
Cc1cc(N/N=C/c2ccccc2O)nc(N2CCOCC2)n1	6.96
CN1CCN(/C=N/C2=C(C#N)C(c3ccccc3)C3=C(CC(C)(C)CC3=O)O2)CC1 (centres unmarked)	-17.6
O=C(O)c1cc2ncc(CCO)cn2n1	22.1
Clc1ccc(OCc2cn3ccccc3n2)c2ncccc12	-30.1
CC(=O)N1CCc2cc(Br)cc(S(=O)(=O)NCCCN(C)Cc3ccccc3)c21	-38.3
Cc1nnc(SCC(=O)Nc2ccc3c(c2)OCO3)n(N)c1=O	11.3
COc1ccc(/C=N/NC(=O)CN(C)C(=O)OCc2ccccc2)cc1OC	9.1
CCN1CCN(c2cn[nH]c(=O)c2Cl)CC1	21.4
COc1cccc(/C=C/C(=O)c2c(O)cc(C)oc2=O)c1O	17.7
CC(OC(=O)Cc1ccsc1)C(=O)Nc1ccc(Cl)cn1 (centres unmarked)	-1.88
COc1ccc(NC(=O)CN(C)C(=O)c2cc(-c3ccccc3)nc3ccccc23)cc1	-21.4
Cc1c(N=C2C(=O)Nc3ccccc32)c(=O)n(-c2ccccc2)n1C	21.3
Cc1noc(C)c1COc1ccc(C(=O)NNC(=O)c2ccccc2)cc1	11.5
